In PMC3709894:
No constants are given. Whether binding was seen depends on the method and setting. Binding seen in cells or lysates may run through a third protein. Some binding calls cover weakened binding; strength is not graded here. Sequences can lack the tags named with a protein.

How the values were obtained:
Assay in all cases: co-IP; 293 T cells transfected with pFlag CMV2 Rad21 constructs; IP of Flag-Rad21 (Flag mAb agarose beads) from whole cell lysate, blots of endogenous cohesin subunits and associated proteins
[1] = target: T1, Flag-Rad21 Del(383–392 aa), full length devoid of 383–392 aa (human) (UniProt O60216)
T1 sequence: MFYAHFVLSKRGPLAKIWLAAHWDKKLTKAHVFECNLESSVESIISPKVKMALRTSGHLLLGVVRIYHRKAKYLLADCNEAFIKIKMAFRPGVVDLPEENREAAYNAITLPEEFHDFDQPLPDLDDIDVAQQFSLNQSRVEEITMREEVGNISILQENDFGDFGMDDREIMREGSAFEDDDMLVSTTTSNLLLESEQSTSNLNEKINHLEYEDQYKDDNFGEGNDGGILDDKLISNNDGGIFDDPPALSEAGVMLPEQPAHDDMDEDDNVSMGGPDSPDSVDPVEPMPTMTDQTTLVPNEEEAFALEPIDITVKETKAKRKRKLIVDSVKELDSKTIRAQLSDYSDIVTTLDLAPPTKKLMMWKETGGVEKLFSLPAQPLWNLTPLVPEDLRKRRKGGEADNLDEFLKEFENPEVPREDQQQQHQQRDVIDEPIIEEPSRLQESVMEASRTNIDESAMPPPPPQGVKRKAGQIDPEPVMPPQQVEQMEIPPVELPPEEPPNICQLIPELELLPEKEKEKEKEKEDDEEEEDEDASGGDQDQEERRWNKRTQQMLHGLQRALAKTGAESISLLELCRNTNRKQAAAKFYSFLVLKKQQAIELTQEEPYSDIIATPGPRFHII

[2] = target: T2, Flag-Rad21 WT (full length) in pFlag CMV2 (human) (UniProt O60216)
T2 sequence: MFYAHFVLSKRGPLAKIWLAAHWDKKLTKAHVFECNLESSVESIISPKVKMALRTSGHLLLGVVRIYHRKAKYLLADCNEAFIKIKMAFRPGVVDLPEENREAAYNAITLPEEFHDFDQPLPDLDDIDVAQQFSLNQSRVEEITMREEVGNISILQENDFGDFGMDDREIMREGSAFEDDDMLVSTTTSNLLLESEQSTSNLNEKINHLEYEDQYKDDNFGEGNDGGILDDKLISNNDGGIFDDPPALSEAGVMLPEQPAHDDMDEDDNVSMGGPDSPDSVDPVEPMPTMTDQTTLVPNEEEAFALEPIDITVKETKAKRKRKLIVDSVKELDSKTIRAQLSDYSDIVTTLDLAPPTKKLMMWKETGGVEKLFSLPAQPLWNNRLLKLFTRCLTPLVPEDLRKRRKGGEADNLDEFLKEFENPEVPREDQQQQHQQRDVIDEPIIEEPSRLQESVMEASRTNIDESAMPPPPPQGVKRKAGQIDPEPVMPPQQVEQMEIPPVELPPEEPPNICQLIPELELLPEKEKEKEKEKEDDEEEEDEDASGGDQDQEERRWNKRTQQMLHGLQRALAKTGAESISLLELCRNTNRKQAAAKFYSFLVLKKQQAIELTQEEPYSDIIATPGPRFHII

[3] = target: T3, Flag-Rad21 triple mutant (TM) L385A F389A T390A (human) (UniProt O60216)
T3 sequence: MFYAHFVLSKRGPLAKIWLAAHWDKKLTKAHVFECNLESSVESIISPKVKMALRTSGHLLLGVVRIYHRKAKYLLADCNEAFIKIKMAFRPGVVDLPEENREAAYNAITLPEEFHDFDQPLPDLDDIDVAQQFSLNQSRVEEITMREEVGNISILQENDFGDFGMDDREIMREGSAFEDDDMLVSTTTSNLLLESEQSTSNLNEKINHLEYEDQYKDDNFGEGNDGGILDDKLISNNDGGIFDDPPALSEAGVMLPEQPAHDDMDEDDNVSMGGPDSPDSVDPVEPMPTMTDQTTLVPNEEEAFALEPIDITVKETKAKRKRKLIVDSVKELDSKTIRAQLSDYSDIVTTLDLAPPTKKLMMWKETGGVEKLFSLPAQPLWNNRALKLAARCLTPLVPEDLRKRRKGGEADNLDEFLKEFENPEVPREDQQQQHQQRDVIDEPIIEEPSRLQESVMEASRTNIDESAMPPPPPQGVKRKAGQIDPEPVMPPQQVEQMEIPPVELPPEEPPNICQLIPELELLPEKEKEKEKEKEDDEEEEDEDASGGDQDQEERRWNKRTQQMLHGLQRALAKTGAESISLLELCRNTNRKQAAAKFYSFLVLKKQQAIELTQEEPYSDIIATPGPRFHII

Measured: binding

B1: endogenous Wapl (protein, UniProt Q7Z5K2 1-1190)
chain: MTSRFGKTYSRKGGNGSSKFDEVFSNKRTTLSTKWGETTFMAKLGQKRPNFKPDIQEIPKKPKVEEESTGDPFGFDSDDESLPVSSKNLAQVKCSSYSESSEAAQLEEVTSVLEANSKISHVVVEDTVVSDKCFPLEDTLLGKEKSTNRIVEDDASISSCNKLITSDKVENFHEEHEKNSHHIHKNADDSTKKPNAETTVASEIKETNDTWNSQFGKRPESPSEISPIKGSVRTGLFEWDNDFEDIRSEDCILSLDSDPLLEMKDDDFKNRLENLNEAIEEDIVQSVLRPTNCRTYCRANKTKSSQGASNFDKLMDGTSQALAKANSESSKDGLNQAKKGGVSCGTSFRGTVGRTRDYTVLHPSCLSVCNVTIQDTMERSMDEFTASTPADLGEAGRLRKKADIATSKTTTRFRPSNTKSKKDVKLEFFGFEDHETGGDEGGSGSSNYKIKYFGFDDLSESEDDEDDDCQVERKTSKKRTKTAPSPSLQPPPESNDNSQDSQSGTNNAENLDFTEDLPGVPESVKKPINKQGDKSKENTRKIFSGPKRSPTKAVYNARHWNHPDSEELPGPPVVKPQSVTVRLSSKEPNQKDDGVFKAPAPPSKVIKTVTIPTQPYQDIVTALKCRREDKELYTVVQHVKHFNDVVEFGENQEFTDDIEYLLSGLKSTQPLNTRCLSVISLATKCAMPSFRMHLRAHGMVAMVFKTLDDSQHHQNLSLCTAALMYILSRDRLNMDLDRASLDLMIRLLELEQDASSAKLLNEKDMNKIKEKIRRLCETVHNKHLDLENITTGHLAMETLLSLTSKRAGDWFKEELRLLGGLDHIVDKVKECVDHLSRDEDEEKLVASLWGAERCLRVLESVTVHNPENQSYLIAYKDSQLIVSSAKALQHCEELIQQYNRAEDSICLADSKPLPHQNVTNHVGKAVEDCMRAIIGVLLNLTNDNEWGSTKTGEQDGLIGTALNCVLQVPKYLPQEQRFDIRVLGLGLLINLVEYSARNRHCLVNMETSCSFDSSICSGEGDDSLRIGGQVHAVQALVQLFLERERAAQLAESKTDELIKDAPTTQHDKSGEWQETSGEIQWVSTEKTDGTEEKHKKEEEDEELDLNKALQHAGKHMEDCIVASYTALLLGCLCQESPINVTTVREYLPEGDFSIMTEMLKKFLSFMNLTCAVGTTGQKSISRVIEYLEHC
binds: [1] | [2] | [3]
